Source: the supplement of paper PMC3334620
Over roughly 33,000 sequences, “E-score (-0.5 to 0.5)” has its median near -0.032; the highest 2% begin near 0.36. Some of the results follow.

These sequences were tested against T1, Sko1 (UniProt Q02100) (assay: PBM E-score (8-mer binding enrichment) (E-score (-0.5 to 0.5)); higher = stronger / more preferred TF binding; most listed sequences are background and not binding sites). Settings: protein concentration: 200 nM; construct: GST-full length.
T1 sequence: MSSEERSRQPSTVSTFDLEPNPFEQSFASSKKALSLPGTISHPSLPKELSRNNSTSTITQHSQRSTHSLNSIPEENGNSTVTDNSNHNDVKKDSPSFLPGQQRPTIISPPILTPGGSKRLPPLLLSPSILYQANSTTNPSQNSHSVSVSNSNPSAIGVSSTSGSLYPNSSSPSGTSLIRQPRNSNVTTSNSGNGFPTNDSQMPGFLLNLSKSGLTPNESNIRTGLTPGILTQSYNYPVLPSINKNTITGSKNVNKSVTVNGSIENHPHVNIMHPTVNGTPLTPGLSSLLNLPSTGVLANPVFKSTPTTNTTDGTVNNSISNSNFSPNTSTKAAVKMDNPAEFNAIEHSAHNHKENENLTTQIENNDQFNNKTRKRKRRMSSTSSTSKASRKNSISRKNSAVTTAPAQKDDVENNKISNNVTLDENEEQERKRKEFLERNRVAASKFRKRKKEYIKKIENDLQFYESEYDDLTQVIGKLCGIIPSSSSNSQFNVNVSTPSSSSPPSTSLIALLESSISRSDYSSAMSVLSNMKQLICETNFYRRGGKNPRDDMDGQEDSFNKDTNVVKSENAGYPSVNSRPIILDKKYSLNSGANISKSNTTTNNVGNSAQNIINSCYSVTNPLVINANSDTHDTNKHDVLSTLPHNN
Experimental: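 Universal 'all 10-mer' protein binding microarrays (Agilent AMADID 015681) probed with GST-tagged S. cerevisiae TFs (full-length or DBD) made by in vitro transcription/translation (PURExpress), about 100-200 nM. Bound TF was detected with fluorescent anti-GST. Each ungapped 8-mer (which stands for itself and its reverse complement) is scored by the PBM enrichment score (E-score), a modified Wilcoxon-Mann-Whitney statistic from -0.5 to +0.5, computed with the Universal PBM Analysis Suite. Scale: above 0.35 generally sequence-specific binding.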

Row | Sequence | PBM E-score
1 | AGCGAACA | 0.0054
2 | CTACTGGA | -0.136
3 | TCCGTGAA | 0.0239
4 | GTAAAGGA | 0.0237
5 | CACTTGAG | -0.0823
6 | ACCCCCTA | -0.383
7 | AGGGACAA | -0.108
8 | TAAGAGCA | 0.0638
9 | GCTTAGAC | -0.212
10 | CCAAGGCC | -0.239
11 | ATGAGTGG | -0.122
12 | GCGAATCA | 0.104
13 | CCCCTGGA | -0.262
14 | CAATAAAG | 0.0505
15 | ACGCGCAT | 0.263
16 | CACGAACA | 0.11
17 | GCGCTCCC | -0.358
18 | CGCCGGGA | -0.442
19 | CATGTATA | 0.209
20 | TCCTGGCA | -0.0713
21 | ATGTTTGA | 0.0632
22 | ATAACGTA | 0.461
23 | ATGCTGTG | 0.0724
24 | CAGATCGC | -0.0406
25 | ATATCCCC | -0.246

Row | Sequence | PBM E-score
26 | GGGTCACC | -0.346
27 | AGCGGGAG | -0.271
28 | AGGGCTAC | -0.264
29 | AGCAGCTC | -0.237
30 | ATGGGTCC | -0.274
31 | CTTGGTCA | 0.0157
32 | GCACGCTA | -0.138
33 | GCGGAAGA | -0.109
34 | CGCTCATC | -0.0319
35 | ATTAGGTG | 0.143
36 | ACAGCTAA | -0.0635
37 | ACCTGGTA | -0.167
38 | GAACAAGC | 0.00353
39 | ATCATTAG | 0.26
40 | ATCATACA | 0.257
41 | GAAAAGCC | -0.236
42 | TATGGGCA | -0.128
43 | CGCGTGTC | 0.159
44 | TGTTTAAA | 0.145
45 | GCGGCCCC | -0.364
46 | ATCTGGAC | -0.159
47 | AGGTCAGG | -0.395
48 | ATTTTAGC | -0.0022
49 | GGATTTCA | -0.0921
50 | GGTATTCA | 0.133

Row | Sequence | PBM E-score
51 | AGCACTCC | -0.0955
52 | CACCTGTC | -0.232
53 | ACAGGGCA | -0.0363
54 | GTCTTATA | 0.19
55 | CAGATAAG | -0.0185
56 | GCGCTGCA | -0.0598
57 | GTCCCGCA | -0.182
58 | CTGGAACA | 0.152
59 | CCCGCTGC | -0.162
60 | CGCGCTGC | -0.147
61 | AGTCACTC | -0.0377
62 | AGTTGATA | 0.151
63 | GACTCACA | 0.0934
64 | CTGAACAG | -0.129
65 | CTCGATCA | -0.0926
66 | ACGCGAAA | 0.232
67 | ATCTAGTC | -0.136
68 | AGCTAAAC | -0.00852
69 | CGTCCTCC | -0.08
70 | CGTTATGA | 0.267
71 | AAAACTGT | 0.135
72 | AAACTTAC | 0.169
73 | AGAGTCGA | -0.192
74 | CTGACGAA | 0.373
75 | GCACTGCA | 0.0142

Row | Sequence | PBM E-score
76 | GACGCTAA | 0.032
77 | ATGGGATC | -0.00149
78 | CCCCACCA | -0.12
79 | ACGGTCCC | -0.364
80 | AGCAAACC | 0.053
81 | CGGTCACG | -0.0207
82 | GCCGGCTA | -0.0506
83 | AATTAAAT | 0.174
84 | CAGCCGAG | -0.317
85 | CCATTTCC | -0.0706
86 | GCGTTTTA | 0.125
87 | CACGATAC | 0.0723
88 | AATAATAA | 0.238
89 | TCACGCCA | 0.195
90 | GTCCAAGA | -0.284
91 | AGACTCCA | -0.159
92 | AAGTACCA | 0.0286
93 | TAGTTGAA | 0.078
94 | TATAGGCA | -0.0485
95 | AAGCTGGT | -0.0738
96 | TGAAGCCA | -0.0432
97 | ATAACAGC | 0.139
98 | CCACGTTC | 0.0509
99 | CTCTCAAA | 0.157
100 | GGTAAGGA | -0.0271

Row | Sequence | PBM E-score
101 | ATTGCTTG | -0.00897
102 | CGTCCACC | -0.115
103 | AAAACAAT | 0.138
104 | CATTGGGC | -0.143
105 | GACTTCAC | -0.166
106 | ATCCTTCA | 0.068
107 | GCACTCAC | -0.095
108 | GCGAGCGC | -0.14
109 | GGCTTAAA | 0.0193
110 | AAAATCGT | 0.243
111 | CAGAGCGC | -0.0734
112 | AGATCCAT | -0.135
113 | GTGCCAAC | -0.0665
114 | TAAACTTA | 0.131
115 | ATGGGAGA | -0.262
116 | CTGTTTCA | 0.196
117 | GGAGAACC | -0.227
118 | AGGCGCGG | -0.242
119 | AGGGTCCC | -0.26
120 | ATCCCTGA | -0.162
121 | GCGAAGCC | -0.208
122 | CCGAAAAG | -0.066
123 | CTGTCTCA | -0.185
124 | CAATATCC | -0.0293
125 | CCGGCTCC | -0.475

Row | Sequence | PBM E-score
126 | AGTGCGGA | -0.057
127 | AGGGCCAC | -0.224
128 | GTTCGACA | 0.063
129 | ACGTAATG | 0.492
130 | AAACAGAT | 0.129
131 | AGCTTTGG | -0.172
132 | ATCCGTCC | -0.0981
133 | CGGGTACC | -0.259
134 | GAAACTTC | -0.00539
135 | ATTTCCAC | 0.0703
136 | ATTAAAGG | 0.0139
137 | AGCTCTTG | -0.0909
138 | CCCTTACC | -0.0536
139 | ACGAACCG | 0.105
140 | AGTGCTGA | -0.124
141 | ACGGCGGC | -0.163
142 | ATATATGA | 0.221
143 | CGGTCCAG | -0.124
144 | AACAACGC | 0.137
145 | AGCCTAAT | -0.0565
146 | AATATTAA | 0.327
147 | GACGTACC | 0.433
148 | ACGCTAGG | -0.104
149 | CTTTCGTA | 0.339
150 | GCCAGGCA | -0.0554

Row | Sequence | PBM E-score
151 | ACGTCAAA | 0.447
152 | CACCCTTA | -0.0951
153 | GTATGATA | 0.329
154 | AAGCTTGG | -0.179
155 | ACGCCATG | 0.368
156 | AACCACCT | -0.0328
157 | CGCTGGTA | -0.065
158 | AGGAGGAA | -0.0768
159 | ATACTGGG | -0.162
160 | AACTAGTC | -0.174
161 | AACGATCG | 0.0421
162 | ACCCAAGT | -0.191
163 | AGCGTGAC | 0.124
164 | CTCTTCCC | -0.0957
165 | CAGGAACC | -0.214
166 | CACGTCAA | 0.426
167 | ATATCCAT | 0.141
168 | AGATCTAT | -0.0808
169 | AATTGGTC | 0.089
170 | ACCGTTTG | -0.142
171 | AGGGGTCC | -0.162
172 | AGGGCCCC | -0.283
